In patent publication US8067379B2, “Sulfur compounds as inhibitors of hepatitis C virus NS3 serine protease” (Schering Corporation, priority 2004, dated 2011):

Target: Recombinant heterodimeric HCV NS3/NS4A protease (strain 1a) (Hepatitis C virus genotype 1a, UniProt P27958)
Assay: Spectrophotometric assay for HCV serine protease inhibitory activity (chromogenic ester substrates)
Format: biochemical
Conditions: Table 3A; class symbols; read-out: Ki* Range

| Structure (SMILES) | Ki [nM] |
| --- | --- |
| C=CCNC(=O)C(=O)C(CCC)NC(=O)[C@@H]1C[C@@H](C(F)(F)F)CN1C(=O)[C@@H](NC(=O)NC1(CS(=O)(=O)C(C)(C)C)CCCCC1)C1CCCCC1 (stereo partly drawn) [Compound 418] | < 75 |
| CC1([C@H](NC(=O)NC2(CS(=O)(=O)C(C)(C)C)CCCCC2)C(=O)N2C[C@H]3[C@@H]([C@H]2C(=O)NC(CCC2CC2)C(=O)C(=O)NCC2CC2)C3(C)C)CCCCC1 (stereo partly drawn) [Compound 419] | < 75 |
| C=C(F)CNC(=O)C(=O)C(CCC1CC1)NC(=O)[C@@H]1[C@@H]2[C@H](CN1C(=O)[C@@H](NC(=O)NC1(CS(=O)(=O)C(C)(C)C)CCCCC1)C1(C)CCCCC1)C2(C)C (stereo partly drawn) [Compound 420] | < 75 |
| C=C(F)CNC(=O)C(=O)C(CC1CC1)NC(=O)[C@@H]1[C@@H]2[C@H](CN1C(=O)[C@@H](NC(=O)NC1(CS(=O)(=O)C(C)(C)C)CCCCC1)C1(C)CCCCC1)C2(C)C (stereo partly drawn) [Compound 421] | < 75 |
| C#CCCC(NC(=O)[C@@H]1[C@@H]2[C@H](CN1C(=O)[C@@H](NC(=O)NC1(CS(=O)(=O)C(C)(C)C)CCCCC1)C1(C)CCCCC1)C2(C)C)C(=O)C(=O)NCC1CCC1 (stereo partly drawn) [Compound 422] | < 75 |
| C=CCNC(=O)C(=O)C(CC1CC1)NC(=O)[C@@H]1[C@@H]2[C@H](CN1C(=O)[C@@H](NC(=O)NC1(CS(=O)(=O)C(C)(C)C)CCCCC1)C1(C)CCCCC1)[C@@]2(C)COCc1ccccc1 (stereo partly drawn) [Compound 423] | < 75 |
| C=CCNC(=O)C(=O)C(CCCC)NC(=O)[C@@H]1[C@@H]2[C@H](CN1C(=O)[C@@H](NC(=O)NC1(CS(=O)(=O)C(C)(C)C)CCCCC1)C1(C)CCCCC1)C2(C)C (stereo partly drawn) [Compound 424] | < 75 |
| C=CCNC(=O)C(=O)C(CC1CC1)NC(=O)[C@@H]1[C@@H]2[C@H](CN1C(=O)[C@@H](NC(=O)NC1(CS(=O)(=O)C34CC5CC(CC(C5)C3)C4)CCCCC1)C1(C)CCCCC1)C2(C)C (stereo partly drawn) [Compound 425] | < 75 |
| C=CCNC(=O)C(=O)C(CCCC)NC(=O)[C@@H]1[C@@H]2[C@H](CN1C(=O)[C@@H](NC(=O)NC1(CS(=O)(=O)C(C)(C)C)CCCCC1)C1CCCCC1)C2(C)C (stereo partly drawn) [Compound 426] | < 75 |
| C=C(F)CNC(=O)C(=O)C(CC1CC1)NC(=O)[C@@H]1[C@@H]2[C@H](CN1C(=O)[C@@H](NC(=O)NC1(CS(=O)(=O)C(C)(C)C)CCCCC1)C(C)(C)C)C2(C)C (stereo partly drawn) [Compound 427] | < 75 |
| C#CCCC(NC(=O)[C@@H]1[C@@H]2[C@H](CN1C(=O)[C@@H](NC(=O)NC1(CS(=O)(=O)C(C)(C)C)CCCCC1)C1(C)CCCCC1)C2(C)C)C(=O)C(=O)NC1CCCC1 (stereo partly drawn) [Compound 428] | < 75 |
| C=CCNC(=O)C(=O)C(CC(F)F)NC(=O)[C@@H]1[C@@H]2[C@H](CN1C(=O)[C@@H](NC(=O)NC1(CS(=O)(=O)C(C)(C)C)CCCCC1)C1(C)CCCCC1)C2(C)C (stereo partly drawn) [Compound 429] | < 75 |
| C=CCNC(=O)C(=O)C(CC(F)F)NC(=O)[C@@H]1[C@@H]2[C@H](CN1C(=O)[C@@H](NC(=O)NC1(CS(=O)(=O)C(C)(C)CC)CCCCC1)C1(C)CCCCC1)C2(C)C (stereo partly drawn) [Compound 430] | < 75 |
| C=CCNC(=O)C(=O)C(CCCC)NC(=O)[C@@H]1[C@@H]2[C@H](CN1C(=O)[C@@H](NC(=O)NC1(CS(=O)(=O)C3(C)CCC4CC3C4(C)C)CCCCC1)C1CCCCC1)C2(C)C (stereo partly drawn) [Compound 431] | < 75 |
| C=CCNC(=O)C(=O)C(CCC1CC1)NC(=O)[C@@H]1[C@@H]2[C@H](CN1C(=O)[C@@H](NC(=O)NC1(CS(=O)(=O)C(C)(C)C)CCCCC1)C(C)(C)C)C2(C)C (stereo partly drawn) [Compound 432] | < 75 |
| C=CCNC(=O)C(=O)C(CC1CCC1)NC(=O)[C@@H]1[C@@H]2[C@H](CN1C(=O)[C@@H](NC(=O)NC1(CS(=O)(=O)C(C)(C)C)CCCCC1)C1(C)CCCCC1)C2(C)C (stereo partly drawn) [Compound 433] | < 75 |
| C=CCNC(=O)C(=O)C(CCC)NC(=O)[C@@H]1[C@@H]2[C@H](CN1C(=O)[C@@H](NC(=O)NC1(CS(=O)(=O)C(C)(C)C)CCCCC1)C1(C)CCCCC1)C2(C)C (stereo partly drawn) [Compound 434] | < 75 |
| CC1([C@H](NC(=O)NC2(CS(=O)(=O)C(C)(C)C)CCCCC2)C(=O)N2C[C@H]3[C@@H]([C@H]2C(=O)NC(CC2CCC2)C(=O)C(=O)NC2CC2)C3(C)C)CCCCC1 (stereo partly drawn) [Compound 435] | < 75 |
| CCCCC(NC(=O)[C@@H]1[C@@H]2[C@H](CN1C(=O)[C@@H](NC(=O)NC1(CS(=O)(=O)C(C)(C)C)CCCCC1)C1(C)CCCCC1)C2(C)C)C(=O)C(=O)NC1CC1 (stereo partly drawn) [Compound 436] | < 75 |
| CCCC(NC(=O)[C@@H]1[C@@H]2[C@H](CN1C(=O)[C@@H](NC(=O)NC1(CS(=O)(=O)C(C)(C)C)CCCCC1)C1(C)CCCCC1)C2(C)C)C(=O)C(=O)NC1CC1 (stereo partly drawn) [Compound 437] | < 75 |
| C#CCNC(=O)C(=O)C(CC1CCC1)NC(=O)[C@@H]1[C@@H]2[C@H](CN1C(=O)[C@@H](NC(=O)NC1(CS(=O)(=O)C(C)(C)C)CCCCC1)C1(C)CCCCC1)C2(C)C (stereo partly drawn) [Compound 438] | < 75 |
| C#CCNC(=O)C(=O)C(CCC)NC(=O)[C@@H]1[C@@H]2[C@H](CN1C(=O)[C@@H](NC(=O)NC1(CS(=O)(=O)C(C)(C)C)CCCCC1)C1(C)CCCCC1)C2(C)C (stereo partly drawn) [Compound 439] | < 75 |
| CC1([C@H](NC(=O)NC2(CS(=O)(=O)C(C)(C)C)CCCCC2)C(=O)N2C[C@H]3[C@@H]([C@H]2C(=O)NC(CC2CC2)C(=O)C(=O)NCCC2CC2)C3(C)C)CCCCC1 (stereo partly drawn) [Compound 440] | < 75 |

| Structure (SMILES) | Ki [nM] |
| --- | --- |
| C=CCNC(=O)C(=O)C(CC(F)F)NC(=O)[C@@H]1[C@@H]2[C@H](CN1C(=O)[C@@H](NC(=O)NC1(CS(=O)(=O)C(C)(C)CCC)CCCCC1)C1(C)CCCCC1)C2(C)C (stereo partly drawn) [Compound 441] | < 75 |
| C=CCNC(=O)C(=O)C(CCC)NC(=O)[C@@H]1[C@@H]2[C@H](CN1C(=O)[C@@H](NC(=O)NC1(CS(=O)(=O)C(C)(C)C)CCCCC1)C1CCC(F)(F)CC1)C2(C)C (stereo partly drawn) [Compound 442] | < 75 |
| C=CCNC(=O)C(=O)C(CC1CC1)NC(=O)[C@@H]1[C@@H]2[C@H](CN1C(=O)[C@@H](NC(=O)NC1(CS(=O)(=O)C(C)(C)C)CCCCC1)C1CCC(F)(F)CC1)C2(C)C (stereo partly drawn) [Compound 443] | < 75 |
| C#CCNC(=O)C(=O)C(CCCC)NC(=O)[C@@H]1[C@@H]2[C@H](CN1C(=O)[C@@H](NC(=O)NC1(CS(=O)(=O)C(C)(C)C)CCCCC1)C1(C)CCCCC1)C2(C)C (stereo partly drawn) [Compound 444] | < 75 |
| C#CCCC(NC(=O)[C@@H]1[C@@H]2[C@H](CN1C(=O)[C@@H](NC(=O)NC1(CS(=O)(=O)C(C)(C)C)CCCCC1)C1(C)CCCCC1)C2(C)C)C(=O)C(=O)NCC#C (stereo partly drawn) [Compound 445] | < 75 |
| C#CCCC(NC(=O)[C@@H]1[C@@H]2[C@H](CN1C(=O)[C@@H](NC(=O)NC1(CS(=O)(=O)C(C)(C)C)CCCCC1)C1(C)CCCCC1)C2(C)C)C(=O)C(=O)NCCC1CC1 (stereo partly drawn) [Compound 446] | < 75 |
| C=CCNC(=O)C(=O)C(CC1CC1)NC(=O)[C@@H]1[C@@H]2[C@H](CN1C(=O)[C@@H](NC(=O)NC1(CS(=O)(=O)C(C)(C)C)C3CCCC31)C(C)(C)C)C2(C)C (stereo partly drawn) [Compound 447] | < 75 |
| CCCC(C)(C)S(=O)(=O)CC1(NC(=O)N[C@H](C(=O)N2C[C@H]3[C@@H]([C@H]2C(=O)NC(CC2CC2)C(=O)C(=O)NC2CC2)C3(C)C)C2(C)CCCCC2)CCCCC1 (stereo partly drawn) [Compound 448] | < 75 |
| CC(C)S(=O)(=O)CC1(NC(=O)N[C@H](C(=O)N2C[C@H]3[C@@H]([C@H]2C(=O)NC(CC2CC2)C(=O)C(=O)NC2CC2)C3(C)C)C2(C)CCCCC2)CCCCC1 (stereo partly drawn) [Compound 449] | < 75 |
| C=CCNC(=O)C(=O)C(CCCC)NC(=O)[C@@H]1[C@@H]2[C@H](CN1C(=O)[C@@H](NC(=O)NC1(CS(=O)(=O)C(C)(C)C)CCCCC1)C1CCC(F)(F)CC1)C2(C)C (stereo partly drawn) [Compound 450] | < 75 |
| CC1([C@H](NC(=O)NC2(CS(=O)(=O)C(C)(C)C)CCCCC2)C(=O)N2C[C@H]3[C@@H]([C@H]2C(=O)NC(CC2CC2)C(=O)C(=O)NC2CC2)C3(C)C)CCCC1 (stereo partly drawn) [Compound 451] | < 75 |
| C=CCNC(=O)C(=O)C(CC1CC1)NC(=O)[C@@H]1C[C@@H](C(F)(F)F)CN1C(=O)[C@@H](NC(=O)NC1(CS(=O)(=O)C(C)(C)C)CCCCC1)C1CCCCC1 (stereo partly drawn) [Compound 452] | < 75 |
| C=CCNC(=O)C(=O)C(CC1CC1)NC(=O)[C@@H]1[C@@H]2[C@H](CN1C(=O)[C@@H](NC(=O)NC1(CS(=O)(=O)C(C)(C)C)CCC(F)(F)CC1)C1(C)CCCCC1)C2(C)C (stereo partly drawn) [Compound 453] | < 75 |
| CC1([C@H](NC(=O)NC2(CS(=O)(=O)C(C)(C)C)CCCCC2)C(=O)N2C[C@H]3[C@@H]([C@H]2C(=O)NC(CC2CC2)C(=O)C(=O)NC/C=C/C2CC2)C3(C)C)CCCCC1 (stereo partly drawn) [Compound 454] | < 75 |
| C=CCNC(=O)C(=O)C(CC1CC1)NC(=O)[C@@H]1[C@@H]2[C@H](CN1C(=O)[C@@H](NC(=O)NC1(CS(=O)(=O)C(C)(C)C)CCCCC1)C1(C)CCCCC1)[C@@]2(C)COc1ccccc1 (stereo partly drawn) [Compound 456] | 75 to 250 |
| CC1([C@H](NC(=O)NC2(CS(=O)(=O)C(C)(C)C)CCCCC2)C(=O)N2C[C@H]3[C@@H]([C@H]2C(=O)NC(CCCCF)C(=O)C(=O)NC2CC2)C3(C)C)CCCCC1 (stereo partly drawn) [Compound 457] | < 75 |
| CC1([C@H](NC(=O)NC2(CS(=O)(=O)C(C)(C)C)CCCCC2)C(=O)N2C[C@H]3[C@@H]([C@H]2C(=O)NC(CCCC(F)F)C(=O)C(=O)NC2CC2)C3(C)C)CCCCC1 (stereo partly drawn) [Compound 459] | < 75 |
| C=CCNC(=O)C(=O)C(CC1CC1)NC(=O)[C@@H]1C[C@@H](C(F)(F)F)CN1C(=O)[C@@H](NC(=O)NC1(CS(=O)(=O)C(C)(C)C)CCCCC1)C1(C)CCCCC1 (stereo partly drawn) [Compound 460] | < 75 |
| CCCC(NC(=O)[C@@H]1[C@@H]2[C@H](CN1C(=O)[C@@H](NC(=O)NC(CCC)(CCC)CS(=O)(=O)C(C)(C)C)C1(C)CCCCC1)C2(C)C)C(=O)C(=O)NC1CC1 (stereo partly drawn) [Compound 461] | 75 to 250 |
| C=CCNC(=O)C(=O)C(CC1CC1)NC(=O)[C@@H]1[C@@H]2[C@H](CN1C(=O)[C@@H](NC(=O)NC(CCC)(CCC)CS(=O)(=O)C(C)(C)C)C1(C)CCCCC1)C2(C)C (stereo partly drawn) [Compound 462] | > 250 |
| CC1([C@H](NC(=O)N[C@@]2(CS(=O)(=O)C(C)(C)C)C[C@H]3C[C@H]3C2)C(=O)N2C[C@H]3[C@@H]([C@H]2C(=O)NC(CC2CC2)C(=O)C(=O)NC2CC2)C3(C)C)CCCCC1 (stereo partly drawn) [Compound 463] | 75 to 250 |
| CCCC(NC(=O)[C@@H]1[C@@H]2[C@H](CN1C(=O)[C@@H](NC(=O)N[C@@]1(CS(=O)(=O)C(C)(C)C)C[C@H]3C[C@H]3C1)C1(C)CCCCC1)C2(C)C)C(=O)C(=O)NC1CC1 (stereo partly drawn) [Compound 464] | < 75 |
